# Laboratory results reported in the supplement of paper PMC8728848.
# The other results are listed elsewhere or left out.
# B1: Mannose Binding Protein (Lactobacillus plantarum) (protein)
# chain: AERSEAALTHVDKDNFLKYFSLNGSATYDAKTGIVTITPNQNNQVGNFSLTSKIDMNKSFTLTGQVNLGSNPNGADGIGFAFHSGNTTDVGNAGGNLGIGGLQDAIGFKLDTWFNSYQAPSSDKNGSEISSTNSNGFGWNGDSANAPYGTFVKTSNQEISTANGSKVQRWWAQDTGESQALSKADIDGNFHDFVVNYDGATRTLTVSYTQASGKVLTWKTTVASSYQAMAMVVSASTGAAKNLQQFKLTSFDFQEAATVNVKYVDTTGHQLAQG
# Key:
# Experiment in all cases: glycan array binding signal (z-score within array); higher = stronger binding
# Conditions in all cases: glycan notation: IUPAC condensed, linker removed
# [1] = target: Neu5Ac(a2-3)Gal(b1-3)[Neu5Ac(a2-3)Gal(b1-4)]GlcNAc
# Summary of the method: (§1)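 The binding signal is a Z-score computed within each array. Data were drawn from 3228 arrays in the Consortium for Functional Glycomics database, restricted to those with a known protein sequence. Scores were averaged over arrays of the same protein sequence at different concentrations or buffers, and over linkers, and negative values can be taken as non-binding.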
# [2] = target: Neu5Ac(a2-3)Gal(b1-3)[Neu5Ac(a2-6)]GalNAc
# Summary of the method: as §1
# [3] = target: Neu5Ac(a2-3)Gal(b1-4)Glc
# Summary of the method: as §1
# [4] = target: Neu5Ac(a2-3)Gal(b1-4)GlcNAc
# Summary of the method: as §1
# [5] = target: Neu5Ac(a2-3)Gal(b1-4)GlcNAc(b1-2)Man(a1-3)[GlcNAc(b1-2)Man(b1-4)GlcNAc(b1-2)Man(a1-6)]Man(b1-4)GlcNAc(b1-4)GlcNAc
# Summary of the method: as §1
# [6] = target: Neu5Ac(a2-3)Gal(b1-4)GlcNAc(b1-2)Man(a1-3)[Neu5Ac(a2-6)Gal(b1-4)GlcNAc(b1-2)Man(a1-6)]Man(b1-4)GlcNAc(b1-4)GlcNAc
# Summary of the method: as §1
# [7] = target: Neu5Ac(a2-3)Gal(b1-4)GlcNAc(b1-3)Gal(b1-3)GlcNAc
# Summary of the method: as §1
# [8] = target: Neu5Ac(a2-3)Gal(b1-4)GlcNAc(b1-3)Gal(b1-4)GlcNAc
# Summary of the method: as §1
# [9] = target: Neu5Ac(a2-3)Gal(b1-4)GlcNAc(b1-3)Gal(b1-4)GlcNAc(b1-3)Gal(b1-4)GlcNAc
# Summary of the method: as §1
# [10] = target: Neu5Ac(a2-3)Gal(b1-4)GlcNAc(b1-3)Gal(b1-4)[Fuc(a1-3)]GlcNAc
# Summary of the method: as §1
# [11] = target: Neu5Ac(a2-3)Gal(b1-4)GlcNAc(b1-6)[Gal(b1-3)]GalNAc
# Summary of the method: as §1
# [12] = target: Neu5Ac(a2-3)Gal(b1-4)GlcNAc(b1-6)[Neu5Ac(a2-3)Gal(b1-3)]GalNAc
# Summary of the method: as §1
# [13] = target: Neu5Ac(a2-3)Gal(b1-4)GlcNAc6S
# Summary of the method: as §1
# [14] = target: Neu5Ac(a2-3)Gal(b1-4)[Fuc(a1-3)]GlcNAc
# Summary of the method: as §1
# [15] = target: Neu5Ac(a2-3)Gal(b1-4)[Fuc(a1-3)]GlcNAc(b1-3)Gal
# Summary of the method: as §1
# [16] = target: Neu5Ac(a2-3)Gal(b1-4)[Fuc(a1-3)]GlcNAc(b1-3)Gal(b1-4)GlcNAc
# Summary of the method: as §1
# [17] = target: Neu5Ac(a2-3)Gal(b1-4)[Fuc(a1-3)]GlcNAc(b1-3)Gal(b1-4)[Fuc(a1-3)]GlcNAc(b1-3)Gal(b1-4)[Fuc(a1-3)]GlcNAc
# Summary of the method: as §1
# [18] = target: Neu5Ac(a2-3)Gal(b1-4)[Fuc(a1-3)]GlcNAc(b1-6)[Gal(b1-3)]GalNAc
# Summary of the method: as §1
# [19] = target: Neu5Ac(a2-3)Gal(b1-4)[Fuc(a1-3)]GlcNAc6S
# Summary of the method: as §1
# [20] = target: Neu5Ac(a2-3)Gal6S(b1-4)GlcNAc
# Summary of the method: as §1
# [21] = target: Neu5Ac(a2-3)Gal6S(b1-4)[Fuc(a1-3)]GlcNAc
# Summary of the method: as §1
# [22] = target: Neu5Ac(a2-3)GalNAc
# Summary of the method: as §1
# [23] = target: Neu5Ac(a2-3)GalNAc(b1-4)GlcNAc
# Summary of the method: as §1
# [24] = target: Neu5Ac(a2-3)[GalNAc(b1-4)]Gal(b1-4)Glc
# Summary of the method: as §1
# [25] = target: Neu5Ac(a2-3)[GalNAc(b1-4)]Gal(b1-4)GlcNAc
# Summary of the method: as §1
# [26] = target: Neu5Ac(a2-3)[Neu5Ac(a2-6)]GalNAc
# Summary of the method: as §1
# [27] = target: Neu5Ac(a2-6)Gal
# Summary of the method: as §1
# [28] = target: Neu5Ac(a2-6)Gal(b1-4)Glc
# Summary of the method: as §1
# [29] = target: Neu5Ac(a2-6)Gal(b1-4)GlcNAc
# Summary of the method: as §1
# [30] = target: Neu5Ac(a2-6)Gal(b1-4)GlcNAc(b1-2)Man(a1-3)[Gal(b1-4)GlcNAc(b1-2)Man(a1-6)]Man(b1-4)GlcNAc(b1-4)GlcNAc
# Summary of the method: as §1
# [31] = target: Neu5Ac(a2-6)Gal(b1-4)GlcNAc(b1-2)Man(a1-3)[GlcNAc(b1-2)Man(a1-6)]Man(b1-4)GlcNAc(b1-4)GlcNAc
# Summary of the method: as §1
# [32] = target: Neu5Ac(a2-6)Gal(b1-4)GlcNAc(b1-2)Man(a1-3)[GlcNAc(b1-2)Man(b1-4)GlcNAc(b1-2)Man(a1-6)]Man(b1-4)GlcNAc(b1-4)GlcNAc
# Summary of the method: as §1
# [33] = target: Neu5Ac(a2-6)Gal(b1-4)GlcNAc(b1-2)Man(a1-3)[Neu5Ac(a2-6)Gal(b1-4)GlcNAc(b1-2)Man(a1-6)]Man(b1-4)GlcNAc(b1-4)GlcNAc
# Summary of the method: as §1
# [34] = target: Neu5Ac(a2-6)Gal(b1-4)GlcNAc(b1-2)Man(a1-6)[Gal(b1-4)GlcNAc(b1-2)Man(a1-3)]Man(b1-4)GlcNAc(b1-4)GlcNAc
# Summary of the method: as §1
# [35] = target: Neu5Ac(a2-6)Gal(b1-4)GlcNAc(b1-2)Man(a1-6)[GlcNAc(b1-2)Man(a1-3)]Man(b1-4)GlcNAc(b1-4)GlcNAc
# Summary of the method: as §1
# [36] = target: Neu5Ac(a2-6)Gal(b1-4)GlcNAc(b1-3)Gal(b1-4)GlcNAc
# Summary of the method: as §1
# [37] = target: Neu5Ac(a2-6)Gal(b1-4)GlcNAc(b1-3)Gal(b1-4)[Fuc(a1-3)]GlcNAc(b1-3)Gal(b1-4)[Fuc(a1-3)]GlcNAc
# Summary of the method: as §1
# [38] = target: Neu5Ac(a2-6)Gal(b1-4)GlcNAc6S
# Summary of the method: as §1
# [39] = target: Neu5Ac(a2-6)GalNAc
# Summary of the method: as §1
# [40] = target: Neu5Ac(a2-6)GalNAc(b1-4)GlcNAc
# Summary of the method: as §1
# [41] = target: Neu5Ac(a2-8)Neu5Ac
# Summary of the method: as §1
# [42] = target: Neu5Ac(a2-8)Neu5Ac(a2-3)Gal(b1-4)Glc
# Summary of the method: as §1
# [43] = target: Neu5Ac(a2-8)Neu5Ac(a2-3)[GalNAc(b1-4)]Gal(b1-4)Glc
# Summary of the method: as §1
# [44] = target: Neu5Ac(a2-8)Neu5Ac(a2-8)Neu5Ac
# Summary of the method: as §1
# [45] = target: Neu5Ac(a2-8)Neu5Ac(a2-8)Neu5Ac(a2-3)Gal(b1-4)Glc
# Summary of the method: as §1
# [46] = target: Neu5Ac(a2-8)Neu5Ac(a2-8)Neu5Ac(a2-3)[GalNAc(b1-4)]Gal(b1-4)Glc
# Summary of the method: as §1
# [47] = target: Neu5Ac(a2-8)Neu5Ac(a2-8)Neu5Ac(a2-8)Neu5Ac(a2-3)[GalNAc(b1-4)]Gal(b1-4)Glc
# Summary of the method: as §1
# [48] = target: Neu5Ac(b2-6)Gal(b1-4)GlcNAc
# Summary of the method: as §1
# [49] = target: Neu5Ac(b2-6)GalNAc
# Summary of the method: as §1
# [50] = target: Neu5Ac9Ac(a2-6)Gal(b1-4)GlcNAc
# Summary of the method: as §1
# [51] = target: Neu5Gc(a2-3)Gal(b1-3)GlcNAc
# Summary of the method: as §1
# [52] = target: Neu5Gc(a2-3)Gal(b1-3)[Fuc(a1-4)]GlcNAc
# Summary of the method: as §1
# [53] = target: Neu5Gc(a2-3)Gal(b1-4)Glc
# Summary of the method: as §1
# [54] = target: Neu5Gc(a2-3)Gal(b1-4)GlcNAc
# Summary of the method: as §1
# [55] = target: Neu5Gc(a2-3)Gal(b1-4)[Fuc(a1-3)]GlcNAc
# Summary of the method: as §1
# [56] = target: Neu5Gc(a2-6)Gal(b1-4)GlcNAc
# Summary of the method: as §1
# [57] = target: Neu5Gc(a2-6)GalNAc
# Summary of the method: as §1
# [58] = target: Neu5Gc(b2-6)Gal(b1-4)GlcNAc
# Summary of the method: as §1
binder,measurement,setting,value
B1,glycan array binding signal (z-score),[1],-0.43
same,glycan array binding signal (z-score),[2],-0.113
same,glycan array binding signal (z-score),[3],-0.174
same,glycan array binding signal (z-score),[4],-0.332
same,glycan array binding signal (z-score),[5],0.211
same,glycan array binding signal (z-score),[6],-0.211
same,glycan array binding signal (z-score),[7],-0.484
same,glycan array binding signal (z-score),[8],-0.51
same,glycan array binding signal (z-score),[9],-0.035
same,glycan array binding signal (z-score),[10],-0.472
same,glycan array binding signal (z-score),[11],-0.479
same,glycan array binding signal (z-score),[12],0.41
same,glycan array binding signal (z-score),[13],-0.106
same,glycan array binding signal (z-score),[14],-0.561
same,glycan array binding signal (z-score),[15],-0.14
same,glycan array binding signal (z-score),[16],1.15
same,glycan array binding signal (z-score),[17],-0.013
same,glycan array binding signal (z-score),[18],1.06
same,glycan array binding signal (z-score),[19],0.405
same,glycan array binding signal (z-score),[20],-0.421
same,glycan array binding signal (z-score),[21],-0.349
same,glycan array binding signal (z-score),[22],-0.473
same,glycan array binding signal (z-score),[23],-0.549
same,glycan array binding signal (z-score),[24],-0.165
same,glycan array binding signal (z-score),[25],-0.421
same,glycan array binding signal (z-score),[26],-0.459
same,glycan array binding signal (z-score),[27],-0.319
same,glycan array binding signal (z-score),[28],-0.653
same,glycan array binding signal (z-score),[29],1.13
same,glycan array binding signal (z-score),[30],-0.581
same,glycan array binding signal (z-score),[31],-0.444
same,glycan array binding signal (z-score),[32],-0.034
same,glycan array binding signal (z-score),[33],-0.324
same,glycan array binding signal (z-score),[34],-0.361
same,glycan array binding signal (z-score),[35],-0.302
same,glycan array binding signal (z-score),[36],0.585
same,glycan array binding signal (z-score),[37],-0.31
same,glycan array binding signal (z-score),[38],-0.082
same,glycan array binding signal (z-score),[39],-0.316
same,glycan array binding signal (z-score),[40],-0.321
same,glycan array binding signal (z-score),[41],0.641
same,glycan array binding signal (z-score),[42],0.041
same,glycan array binding signal (z-score),[43],-0.567
same,glycan array binding signal (z-score),[44],-0.331
same,glycan array binding signal (z-score),[45],-0.398
same,glycan array binding signal (z-score),[46],-0.716
same,glycan array binding signal (z-score),[47],0.503
same,glycan array binding signal (z-score),[48],0.144
same,glycan array binding signal (z-score),[49],-0.422
same,glycan array binding signal (z-score),[50],-0.315
same,glycan array binding signal (z-score),[51],-0.785
same,glycan array binding signal (z-score),[52],-0.793
same,glycan array binding signal (z-score),[53],0.178
same,glycan array binding signal (z-score),[54],-0.358
same,glycan array binding signal (z-score),[55],-0.269
same,glycan array binding signal (z-score),[56],-0.388
same,glycan array binding signal (z-score),[57],-0.2
same,glycan array binding signal (z-score),[58],1.04
